In the supplement of paper PMC8728848:
This is one part of the list.

Tests used:
Assay in all cases: glycan array binding signal (z-score within array); higher = stronger binding
Conditions in all cases: glycan notation: IUPAC condensed, linker removed
[1] = target: Neu5Ac(a2-6)Gal(b1-4)GlcNAc(b1-2)Man(a1-3)[Neu5Ac(a2-3)Gal(b1-4)GlcNAc(b1-2)Man(a1-6)]Man(b1-4)GlcNAc(b1-4)GlcNAc
Procedure, shortened: (§1)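 From the Consortium for Functional Glycomics database, 3228 arrays were curated, keeping only those whose protein sequence was available. Binding is given as a within-array Z-score averaged across arrays sharing a protein sequence and across linkers. Negative Z-scores can be read as non-binding.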

[2] = target: Neu5Ac(a2-6)Gal(b1-4)GlcNAc(b1-2)Man(a1-3)[Neu5Ac(a2-6)Gal(b1-4)GlcNAc(b1-2)Man(a1-6)]Man(b1-4)GlcNAc(b1-4)GlcNAc
Procedure, shortened: as §1

[3] = target: Neu5Ac(a2-6)Gal(b1-4)GlcNAc(b1-2)Man(a1-3)[Neu5Ac(a2-6)Gal(b1-4)GlcNAc(b1-2)Man(a1-6)]Man(b1-4)GlcNAc(b1-4)[Fuc(a1-6)]GlcNAc
Procedure, shortened: as §1

[4] = target: Neu5Ac(a2-6)Gal(b1-4)GlcNAc(b1-2)Man(a1-6)Man(b1-4)GlcNAc(b1-4)GlcNAc
Procedure, shortened: as §1

[5] = target: Neu5Ac(a2-6)Gal(b1-4)GlcNAc(b1-2)Man(a1-6)[Gal(b1-4)GlcNAc(b1-2)Man(a1-3)]Man(b1-4)GlcNAc(b1-4)GlcNAc
Procedure, shortened: as §1

[6] = target: Neu5Ac(a2-6)Gal(b1-4)GlcNAc(b1-2)Man(a1-6)[GlcNAc(b1-2)Man(a1-3)]Man(b1-4)GlcNAc(b1-4)GlcNAc
Procedure, shortened: as §1

[7] = target: Neu5Ac(a2-6)Gal(b1-4)GlcNAc(b1-2)Man(a1-6)[Man(a1-3)]Man(b1-4)GlcNAc(b1-4)GlcNAc
Procedure, shortened: as §1

[8] = target: Neu5Ac(a2-6)Gal(b1-4)GlcNAc(b1-2)[Neu5Ac(a2-6)Gal(b1-4)GlcNAc(b1-4)]Man(a1-3)[GlcNAc(b1-4)][Neu5Ac(a2-6)Gal(b1-4)GlcNAc(b1-2)[Neu5Ac(a2-6)Gal(b1-4)GlcNAc(b1-6)]Man(a1-6)]Man(b1-4)GlcNAc(b1-4)GlcNAc
Procedure, shortened: as §1

[9] = target: Neu5Ac(a2-6)Gal(b1-4)GlcNAc(b1-2)[Neu5Ac(a2-6)Gal(b1-4)GlcNAc(b1-4)]Man(a1-3)[GlcNAc(b1-4)][Neu5Ac(a2-6)Gal(b1-4)GlcNAc(b1-4)Man(a1-6)]Man(b1-4)GlcNAc(b1-4)GlcNAc
Procedure, shortened: as §1

[10] = target: Neu5Ac(a2-6)Gal(b1-4)GlcNAc(b1-2)[Neu5Ac(a2-6)Gal(b1-4)GlcNAc(b1-6)]Man(a1-6)[Neu5Ac(a2-6)Gal(b1-4)GlcNAc(b1-2)Man(a1-3)][GlcNAc(b1-4)]Man(b1-4)GlcNAc(b1-4)GlcNAc
Procedure, shortened: as §1

[11] = target: Neu5Ac(a2-6)Gal(b1-4)GlcNAc(b1-3)Gal(b1-3)GlcNAc
Procedure, shortened: as §1

[12] = target: Neu5Ac(a2-6)Gal(b1-4)GlcNAc(b1-3)Gal(b1-4)GlcNAc
Procedure, shortened: as §1

[13] = target: Neu5Ac(a2-6)Gal(b1-4)GlcNAc(b1-3)Gal(b1-4)GlcNAc(b1-2)Man(a1-3)[Neu5Ac(a2-6)Gal(b1-4)GlcNAc(b1-3)Gal(b1-4)GlcNAc(b1-2)Man(a1-6)]GalNAc
Procedure, shortened: as §1

[14] = target: Neu5Ac(a2-6)Gal(b1-4)GlcNAc(b1-3)Gal(b1-4)GlcNAc(b1-3)Gal(b1-4)GlcNAc
Procedure, shortened: as §1

[15] = target: Neu5Ac(a2-6)Gal(b1-4)GlcNAc(b1-3)Gal(b1-4)GlcNAc(b1-3)Gal(b1-4)GlcNAc(b1-2)Man(a1-3)[Neu5Ac(a2-6)Gal(b1-4)GlcNAc(b1-3)Gal(b1-4)GlcNAc(b1-3)Gal(b1-4)GlcNAc(b1-2)Man(a1-6)]GalNAc
Procedure, shortened: as §1

[16] = target: Neu5Ac(a2-6)Gal(b1-4)GlcNAc(b1-3)Gal(b1-4)GlcNAc(b1-3)GalNAc
Procedure, shortened: as §1

[17] = target: Neu5Ac(a2-6)Gal(b1-4)GlcNAc(b1-3)Gal(b1-4)GlcNAc(b1-3)[Neu5Ac(a2-6)Gal(b1-4)GlcNAc(b1-3)Gal(b1-4)GlcNAc(b1-6)]GalNAc
Procedure, shortened: as §1

[18] = target: Neu5Ac(a2-6)Gal(b1-4)GlcNAc(b1-3)Gal(b1-4)GlcNAc(b1-6)[Gal(b1-3)]GalNAc
Procedure, shortened: as §1

[19] = target: Neu5Ac(a2-6)Gal(b1-4)GlcNAc(b1-3)Gal(b1-4)[Fuc(a1-3)]GlcNAc(b1-3)Gal(b1-4)[Fuc(a1-3)]GlcNAc
Procedure, shortened: as §1

[20] = target: Neu5Ac(a2-6)Gal(b1-4)GlcNAc(b1-3)GalNAc
Procedure, shortened: as §1

[21] = target: Neu5Ac(a2-6)Gal(b1-4)GlcNAc(b1-3)[Neu5Ac(a2-6)Gal(b1-4)GlcNAc(b1-6)]GalNAc
Procedure, shortened: as §1

[22] = target: Neu5Ac(a2-6)Gal(b1-4)GlcNAc(b1-6)GalNAc
Procedure, shortened: as §1

[23] = target: Neu5Ac(a2-6)Gal(b1-4)GlcNAc(b1-6)[Gal(b1-3)GlcNAc(b1-3)]Gal(b1-4)Glc
Procedure, shortened: as §1

[24] = target: Neu5Ac(a2-6)Gal(b1-4)GlcNAc(b1-6)[Gal(b1-3)]GalNAc
Procedure, shortened: as §1

[25] = target: Neu5Ac(a2-6)Gal(b1-4)GlcNAc6S
Procedure, shortened: as §1

[26] = target: Neu5Ac(a2-6)GalNAc
Procedure, shortened: as §1

[27] = target: Neu5Ac(a2-6)GalNAc(b1-4)GlcNAc
Procedure, shortened: as §1

[28] = target: Neu5Ac(a2-6)GalNAc(b1-4)GlcNAc6S
Procedure, shortened: as §1

[29] = target: Neu5Ac(a2-6)GlcNAc(b1-4)GlcNAc
Procedure, shortened: as §1

[30] = target: Neu5Ac(a2-6)GlcNAc(b1-4)GlcNAc(b1-4)GlcNAc
Procedure, shortened: as §1

B1: ClecSol-Fc (Cryptosporidium parvum) (protein)
chain: CPEGWISNGEKTRCFKLVTFDRPRTFSHGFKACNDLGGTEVETRRRNGSKETNEYPVTLASVYKLSDEEAIRRTLVEQGDIHKTANGCFVGLRKYAFFRYPPGWYWIDSGSPVSVRDSEINWTSSYNASWLLRFKFPFEKCGFFDIGGLGRRPCWLIDSELSCAVCGTVAYDSGGLNPNKYSELIKQTDEIISKEPKLDLPGYNNLNCTDAWENNLSVGLCQNVSNILDSAWSSYQSSLNFPSINFNWKEDSTNEGGDQVYHNSYLDLPRYKQKKTFYWDQDPGTIPALSDEMKLIGLSAQPTYHPLDRSSSGSFESDSTESGRANEERNDTLEEMIYKQSSDSIEDILVPVTKPIFSDYSSIGRNSGVEEVYSSNVSTISSKGVVFPNTTTSSDNDFTKNNPANSSKHTSTSTTTNTTTTTTRTTTTTTTTTTTTTTTTTTTTETTTTKKSTTATKNTTTT
**Q.** B1 was tested. Which “glycan array binding signal (z-score)” value [1] did it give?
**A.** Its value is -0.203.

**Q.** What about the “glycan array binding signal (z-score)” value [2] of the same binder?
**A.** Its value is -0.172.

**Q.** What about the “glycan array binding signal (z-score)” value [3] of the same binder?
**A.** The value was -0.136.

**Q.** What about the “glycan array binding signal (z-score)” value [4] of the same binder?
**A.** The value was -0.1.

**Q.** What about the “glycan array binding signal (z-score)” value [5] of the same binder?
**A.** The value was -0.095.

**Q.** And the “glycan array binding signal (z-score)” value [6]?
**A.** The value was -0.302.

**Q.** What about the “glycan array binding signal (z-score)” value [7] of the same binder?
**A.** The value was -0.177.

**Q.** And the “glycan array binding signal (z-score)” value [8]?
**A.** The value was -0.129.

**Q.** And the “glycan array binding signal (z-score)” value [9]?
**A.** The value was -0.067.

**Q.** What about the “glycan array binding signal (z-score)” value [10] of the same binder?
**A.** Its value is -0.083.

**Q.** And the “glycan array binding signal (z-score)” value [11]?
**A.** Its value is -0.002.

**Q.** What about the “glycan array binding signal (z-score)” value [12] of the same binder?
**A.** The value was 0.051.

**Q.** What about the “glycan array binding signal (z-score)” value [13] of the same binder?
**A.** Its value is -0.02.

**Q.** What about the “glycan array binding signal (z-score)” value [14] of the same binder?
**A.** The value was -0.218.

**Q.** And the “glycan array binding signal (z-score)” value [15]?
**A.** The value was -0.139.

**Q.** What about the “glycan array binding signal (z-score)” value [16] of the same binder?
**A.** Its value is -0.226.

**Q.** And the “glycan array binding signal (z-score)” value [17]?
**A.** The value was -0.146.

**Q.** And the “glycan array binding signal (z-score)” value [18]?
**A.** The value was -0.191.

**Q.** What about the “glycan array binding signal (z-score)” value [19] of the same binder?
**A.** The value was -0.036.

**Q.** What about the “glycan array binding signal (z-score)” value [20] of the same binder?
**A.** Its value is -0.234.

**Q.** What about the “glycan array binding signal (z-score)” value [21] of the same binder?
**A.** The value was -0.216.

**Q.** And the “glycan array binding signal (z-score)” value [22]?
**A.** Its value is -0.052.

**Q.** And the “glycan array binding signal (z-score)” value [23]?
**A.** Its value is 0.096.

**Q.** And the “glycan array binding signal (z-score)” value [24]?
**A.** Its value is -0.084.

**Q.** What about the “glycan array binding signal (z-score)” value [25] of the same binder?
**A.** Its value is -0.175.

**Q.** What about the “glycan array binding signal (z-score)” value [26] of the same binder?
**A.** The value was -0.056.

**Q.** And the “glycan array binding signal (z-score)” value [27]?
**A.** Its value is -0.235.

**Q.** And the “glycan array binding signal (z-score)” value [28]?
**A.** Its value is -0.03.

**Q.** And the “glycan array binding signal (z-score)” value [29]?
**A.** Its value is 0.038.

**Q.** And the “glycan array binding signal (z-score)” value [30]?
**A.** Its value is -0.056.
